Results reported in PubChem BioAssay AID1347165 (National Center for Advancing Translational Sciences (NCATS), 2019).
“And” between values parts separate entries of the source, which are not always exact repeats. Equal entries are not always repeated. In all, about 220,000 compounds went through this assay and about 5,700 (2.6%) were called active. Inconclusive means that the source gave no clear call. Such entries were picked first, then a sample of the others. The call rests on the fitted dose curve; in most records, active means well fitted inhibition curve with a large enough effect; inconclusive means small, poorly fitted or top-dose-only effect; inactive means no such curve, though single readings can be large or run the other way. Potencies beside an inconclusive call are fits to weak or partial responses and may not hold up.

These compounds were tested against Lysine-specific demethylase 5B (Homo sapiens) (UniProt Q9UGL1) (assay: Primary screen for KDM5B Histone Demethylases FDH-coupled qHTS). Details: FDH-coupled NADH fluorescence (FDH is formaldehyde dehydrogenase); activity change, negative = inhibition: at 57.7 µM (top of the series) unless noted.
Procedure, shortened: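 Compound dilutions met 200 nM (final) KDM5BΔAP for 10 min at room temperature before substrate addition. The substrate mix held 12.5 µM H3K4me3 with cofactors 25 µM α-ketoglutarate and 50 µM Fe²⁺. NADH signal gain over 30 min defined activity.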
Further: nearly all actives have a fitted effect of over 70% in size.
Potency means the concentration at half of the fitted maximal effect; tags describe the fitted curve by direction and shape.
Wherever activity change, negative = inhibition is given: 0% is about no effect.

Sequence of UniProt Q9UGL1 (Q9UGL1 whole entry, looked up): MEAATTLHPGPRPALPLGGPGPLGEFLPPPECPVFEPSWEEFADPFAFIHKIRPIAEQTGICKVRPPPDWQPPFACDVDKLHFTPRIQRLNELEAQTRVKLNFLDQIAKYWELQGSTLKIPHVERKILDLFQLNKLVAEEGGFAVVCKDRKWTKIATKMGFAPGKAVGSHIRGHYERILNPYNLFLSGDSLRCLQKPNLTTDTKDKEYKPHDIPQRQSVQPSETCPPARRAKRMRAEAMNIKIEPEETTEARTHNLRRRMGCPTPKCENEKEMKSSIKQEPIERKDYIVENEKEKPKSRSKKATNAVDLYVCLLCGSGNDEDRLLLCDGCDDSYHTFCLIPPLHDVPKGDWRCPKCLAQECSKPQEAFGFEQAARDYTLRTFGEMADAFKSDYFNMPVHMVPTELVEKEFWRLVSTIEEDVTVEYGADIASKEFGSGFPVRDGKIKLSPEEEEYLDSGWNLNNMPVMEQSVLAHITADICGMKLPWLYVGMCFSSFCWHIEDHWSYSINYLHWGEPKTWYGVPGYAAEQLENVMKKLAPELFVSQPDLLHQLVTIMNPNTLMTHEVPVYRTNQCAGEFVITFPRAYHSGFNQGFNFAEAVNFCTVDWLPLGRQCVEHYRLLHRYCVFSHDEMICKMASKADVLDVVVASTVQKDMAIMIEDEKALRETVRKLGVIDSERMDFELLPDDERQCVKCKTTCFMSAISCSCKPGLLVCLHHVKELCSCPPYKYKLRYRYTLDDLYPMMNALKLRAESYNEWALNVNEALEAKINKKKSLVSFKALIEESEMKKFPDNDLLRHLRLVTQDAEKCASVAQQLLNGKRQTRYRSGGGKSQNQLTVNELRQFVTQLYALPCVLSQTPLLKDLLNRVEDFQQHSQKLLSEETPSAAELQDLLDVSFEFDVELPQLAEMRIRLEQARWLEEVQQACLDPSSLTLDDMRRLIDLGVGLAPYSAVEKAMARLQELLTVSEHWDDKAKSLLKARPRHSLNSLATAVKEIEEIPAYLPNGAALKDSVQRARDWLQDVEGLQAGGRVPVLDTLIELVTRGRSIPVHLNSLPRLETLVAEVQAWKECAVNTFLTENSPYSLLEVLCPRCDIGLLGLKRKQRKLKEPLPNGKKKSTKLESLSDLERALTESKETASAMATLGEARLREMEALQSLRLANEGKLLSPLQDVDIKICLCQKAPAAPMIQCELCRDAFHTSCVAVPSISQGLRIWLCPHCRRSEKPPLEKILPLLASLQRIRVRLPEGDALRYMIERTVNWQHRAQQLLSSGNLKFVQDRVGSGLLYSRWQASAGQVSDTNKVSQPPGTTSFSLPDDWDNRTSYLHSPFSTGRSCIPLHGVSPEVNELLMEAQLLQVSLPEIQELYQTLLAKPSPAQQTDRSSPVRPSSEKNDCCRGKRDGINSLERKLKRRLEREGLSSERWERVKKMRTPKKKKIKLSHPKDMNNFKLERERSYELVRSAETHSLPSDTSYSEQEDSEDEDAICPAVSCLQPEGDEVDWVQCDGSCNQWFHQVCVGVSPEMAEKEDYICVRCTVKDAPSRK

Row | Structure (SMILES) | Potency | activity change, negative = inhibition
1 | Cc1ccc(-c2ccc(C=O)cc2)cc1Cl | active: 50.1 µM | 
2 | O=C(c1cccs1)N1CCC(c2nc(C3CCOCC3)no2)C1 (stereo not drawn) | inconclusive: 31.6 µM [inhibitor, partial curve, poor fit] | 
3 | COC(=O)c1nc(NC(=O)Cn2nc3c(cc2=O)CCCC3)sc1-c1ccccc1 | inconclusive: 17.8 µM [inhibitor, single point] | 
4 | CC1CCC(C(C)C)C(OC(=O)COC(=O)/C=C/c2ccc3c(c2)OCO3)C1 (stereo not drawn) | inconclusive: 28.2 µM [inhibitor, partial curve, poor fit] | 
5 | Cc1ccc(NC(=O)COCc2cc(-c3cccs3)on2)cc1Cl | inconclusive: 25.1 µM [inhibitor, single point] | 
6 | CS(=O)(=O)c1ccc(OC[C@H]2C[C@@H](NC(=O)c3cncnc3)[C@H](O)[C@@H]2O)cc1 |  | inactive: -14.3%
7 | CN(C)C(=O)C1CN(C(=O)COc2ccccc2)CC12CCOCC2 (stereo not drawn) |  | inactive: -13.8%
8 | COC(=O)c1ccc2cc(C(=O)O)ccc2c1 | inconclusive: 22.4 µM [inhibitor, single point] | 
9 | Cn1ccnc1C(=O)N1CCCCCNC(=O)[C@H]2C[C@H](C(=O)N3CCc4ccccc4C3)C[C@H]21 |  | inactive: -4.24%
10 | O=C(CSc1ccc2ccccc2c1)OCC(=O)c1ccc2c(c1)OCCO2 |  | inactive: -13%
11 | CCn1c(COc2ccc(Cl)cc2)nnc1SCc1cc(C)ccc1C |  | inactive: -12.5%
12 | CCCN(C(=O)c1cn(CC(C)C)c(=O)c2cc(OC)c(OC)cc12)c1cccc(C)c1 |  | inconclusive: -32.4% [inhibitor]
13 | O=C1Nc2ccccc2CC12CCN(Cc1ccc(OC(F)(F)F)cc1)C2 (stereo not drawn) |  | inactive: -25.7%
14 | COc1ccc(-c2cn3c(n2)sc2cc(C(=O)N4CCCCC4)ccc23)cc1 | inconclusive: 35.5 µM [inhibitor, partial curve, poor fit] | 
15 | COc1ccc(-c2cc(N3CCC(NC(=O)c4cc(C)cc(C)c4)C3)n[nH]2)cc1 (stereo not drawn) | inconclusive: 4.47 µM [inhibitor, full curve, poor fit] | 
16 | O=C(c1c2c(nc3ccccc13)CCCC2)N1CCCC(c2nc(C3CCOCC3)no2)C1 (stereo not drawn) |  | inactive: -18.5%
17 | CCC(CC)c1nn2cc(-c3ccccc3)nc2s1 |  | inconclusive: -31.5% [inhibitor]
18 | CC(=O)N1CCN(c2cc(-c3noc([C@@H]4CCCN4Cc4ccc(C(F)(F)F)cc4)n3)ccn2)CC1 | active: 28.2 µM | 
19 | CCCCOc1cccc(C(=O)Nc2ccc(NC(=O)c3cccs3)cc2)c1 | inconclusive: 39.8 µM [inhibitor, partial curve, poor fit] | 
20 | COC[C@@H]1CN(C(=O)c2ccc(C)[nH]c2=O)C[C@H]1c1ccncc1 | inconclusive: 15.8 µM [inhibitor, partial curve] | 
21 | Cc1ccc(NC(=O)COc2ccc(-c3nn(C)c(=O)c4ccccc34)cc2)c(C)c1 | inconclusive: 35.5 µM [inhibitor, single point] | 
22 | CCc1noc(-c2cccn3c(CNC(=O)Cc4ccccc4C)nnc23)n1 | active: 25.1 µM | 
23 | Cc1ccc2sc(NC(=O)c3cccc(N4C(=O)CCC4=O)c3)nc2c1C | inconclusive: 25.1 µM [inhibitor, single point] | 

Row | Structure (SMILES) | Potency | activity change, negative = inhibition
24 | CC(C)n1nc(OC(C)(C)C(=O)NCC2CCOCC2)c2cc(CN3CCOCC3)ccc21 | inconclusive: 28.2 µM [inhibitor, partial curve, poor fit] | 
25 | CCCc1cc(=O)oc2c(C)c(OC(C)C(=O)NCCN3CCOCC3)ccc12 (stereo not drawn) | inconclusive: 22.4 µM [inhibitor, partial curve, poor fit] | 
26 | N=C(N)c1cccc(OCc2cccnc2)c1 | inconclusive: 6.31 µM [inhibitor, full curve, poor fit] | 
27 | Cc1cc(C)c(NC(=O)CSc2ncnc3ccccc23)c(Cl)c1 |  | inactive: -17.3%
28 | CN1CCC(N[C@H]2C[C@@H](Cc3cc(CN(C)Cc4ccccc4)on3)C2(C)C)CC1 |  | inactive: -17.7% [at 86.2 µM]
29 | O=C(NC(NC(=O)C(c1ccccc1)c1ccccc1)c1ccccc1)C(c1ccccc1)c1ccccc1 | inconclusive: 10 µM [inhibitor, single point] | 
30 | Cc1nn(CC(=O)c2cc(C)n(C(C)C)c2C)c(=O)c(C#N)c1C |  | inactive: -24.8%
31 | COC(=O)c1cc(C)nc2c1c(=O)nc(SCc1c(C)cc(C)cc1C)n2C1CC1 |  | inconclusive: -31.9% [inhibitor]
32 | COc1ccc(CN2CC(CNc3ccccc3)C3(C2)CN(c2ccccc2)C3)cc1O (stereo not drawn) | inconclusive: 31.6 µM [inhibitor, single point] | 
33 | CS(=O)(=O)NCCCNC(=O)c1cnc2ccccc2n1 |  | inactive: 7.2%
34 | O=C([C@@H]1Cc2nc[nH]c2CN1Cc1ccc(Cl)cc1)N1CCOCC1 | inconclusive: 31.6 µM [inhibitor, partial curve, poor fit] | 
35 | COc1cccc(CNCc2cccc3[nH]ccc23)c1 |  | inactive: -22.1%
36 | O=C1c2c(nc(CNCc3cccc(Cl)c3)n2Cc2ccccc2)NCCN1Cc1ccccc1F | inconclusive: 28.2 µM [inhibitor, single point] | 
37 | Cc1ccc(S(=O)(=O)N(CC(=O)Nc2c(C)cccc2C)c2cccc(Cl)c2)cc1 | inconclusive: 31.6 µM [inhibitor, partial curve, poor fit] | 
38 | Cc1ccc(C(=O)N[C@H]2CO[C@H]3[C@@H]2OC[C@@H]3n2cc(CN(C)Cc3ccccc3)nn2)cc1 | inconclusive: 20 µM [inhibitor, single point] | 
39 | CCOc1ccc(C(NC(=O)c2cc(OC)c(OC)c(OC)c2)c2cc(Cl)c3cccnc3c2O)cc1 (stereo not drawn) | inconclusive: 3.16 µM [inhibitor, full curve, poor fit] | 
40 | CC(C)Oc1cccc(C(=O)Nc2ccc3oc(-c4ccccc4)nc3c2)c1 | inconclusive: 35.5 µM [inhibitor, partial curve, poor fit] | 
41 | CC(C)(Oc1nn(CC2CC2)c2ccc(CN3CCCC3)cc12)C(=O)Nc1cccnc1 | active: 28.2 µM | 
42 | Cc1cccc(C)c1OCC(O)CN1CCc2ccccc2C1 (stereo not drawn) | inconclusive: 31.6 µM [inhibitor, single point] | 
43 | COc1ccc(-c2coc3cc(OC(=O)c4ccco4)ccc3c2=O)cc1 |  | inactive: 5.75%
44 | CCOc1ccc(NC(=O)CSC2=C(C#N)C(c3ccc(Cl)cc3)C3=C(CCCC3=O)N2)cc1 (stereo not drawn) |  | inactive: -28.7%
45 | COc1ccc(-c2ccc3ncc(Nc4ccc(OC)c(OC)c4)n3n2)cn1 | inconclusive: 31.6 µM [inhibitor, single point] | 
46 | CS(=O)(=O)N[C@H]1C[C@H]2C(=O)Nc3ccc(-c4cccs4)cc3C(=O)N2C1 | active: 39.8 µM | 

Row | Structure (SMILES) | Potency | activity change, negative = inhibition
47 | Cc1ccncc1C(=O)N1CC(N(C)Cc2cccnc2)C1 |  | inactive: -1.73%
48 | CCOc1ccc(CCNC(=O)c2cc3c(-c4ccccc4F)nn(C)c3s2)cc1OCC | inconclusive: 31.6 µM [inhibitor, partial curve, poor fit] | 
49 | N#Cc1nc(COc2ccc(Cl)cc2Cl)oc1NCc1ccco1 | inconclusive: 22.4 µM [inhibitor, partial curve, poor fit] | 
50 | COc1ccc(C(=O)NCCn2ccn3nc(-c4ccc(F)cc4)cc3c2=O)cn1 | active: 25.1 µM | 
51 | COc1ccc(CCN2C(=O)O[C@@H]3CN(c4nc(C)cc(C)n4)C[C@@H]32)cc1 | active: 17.8 µM | 
52 | Fc1ccc(NC(=S)NCCCc2ccccc2)cc1 |  | inactive: 2.01%
53 | O=C(c1ccccc1Cl)N1CCCC(c2nc3ccccc3o2)C1 (stereo not drawn) |  | inactive: 18.3%
54 | COc1ccc(OC)c2sc(N(CCCN(C)C)C(=O)c3ccco3)nc12 | inconclusive: 14.1 µM [inhibitor, partial curve, poor fit] | 
55 | CCc1cccc(NC(=O)Cn2c(N(C)Cc3ccccc3)nc(C)cc2=O)c1 | active: 25.1 µM | 
56 | CCOc1ccc(NC(=O)CS(=O)(=O)Cc2nc(-c3ccc(C)cc3)oc2C)cc1 |  | inactive: 17.4%
57 | O=C(NCc1cnccn1)c1nc(-c2ccccc2)cc2[nH]ccc12 |  | inactive: 190% [at 86.2 µM]
58 | COc1ccc(C2CC(=O)Oc3c2c(=O)n(C)c2ccccc32)c(OC)c1OC (stereo not drawn) | inconclusive: 22.4 µM [inhibitor, partial curve, poor fit] | 
59 | Cc1nnc(-c2cc(N3CCN(c4ccccn4)CC3)ccn2)n1C(C)C |  | inactive: -16.6% [at 86.2 µM]
60 | COc1ccc(C(=O)N2CCc3nc(C)nc(-c4ccc(Cl)cc4)c3CC2)cc1 |  | inactive: -12.3%
61 | O=C(c1ccncc1)N1CCN(CC2CC=CCC2)CC1 (stereo not drawn) | inconclusive: 35.5 µM [inhibitor, partial curve, poor fit] | 
62 | O=C(Cc1ccc(Cl)cc1)Nc1ccc2oc(-c3ccccc3F)nc2c1 | inconclusive: 25.1 µM [inhibitor, partial curve, poor fit] and inconclusive: 39.8 µM [inhibitor, single point] | 
63 | CCCCc1cc(=O)oc2cc(OCC(=O)NCc3cccnc3)c(Cl)cc12 | inconclusive: 31.6 µM [inhibitor, single point] | 
64 | CCc1ccc([S+](=O)([O-])c2nnn3c2nc(NC2CC2)c2ccccc23)cc1 | inconclusive: 70.8 µM [inhibitor, partial curve, poor fit] | 
65 | CC(C)(C)C(=O)[C@@H]1[C@@H](C(=O)c2ccccc2)[C@@]2(C(=O)Nc3ccccc32)[C@H]2c3ccccc3C=CN12 | inconclusive: 11.2 µM [inhibitor, partial curve, poor fit] | 
66 | CCc1cccc(C)c1NC(=O)CCS(=O)(=O)c1ccc2c(c1)oc(=O)n2C | inconclusive: 25.1 µM [inhibitor, partial curve, poor fit] | 
67 | CC(C)n1nnnc1SCCS(=O)(=O)c1cc(Cl)ccc1Cl |  | inactive: 5.66%
68 | Cc1ccc(Nc2c(-c3ccc(C)cc3)nc3c(C)cccn23)cc1 | inconclusive: 31.6 µM [inhibitor, partial curve, poor fit] | 
